Experimental data from PubChem BioAssay AID652104 (National Center for Advancing Translational Sciences (NCATS), 2013).
Among all 410,000 compounds or so, about 7,200 (1.8%) were called active. Inconclusive means that the source gave no clear call. Such entries were picked first, then a sample of the others. Calls follow the shape of the dose curve; as a rule, active = well fitted activation curve with a large enough effect; inconclusive = small, poorly fitted or top-dose-only effect, or another doubt; inactive = no such curve, though single readings can be large or run the other way. No potency is given beside an inconclusive call; the fits are too rough.

Test: qHTS of TDP-43 Inhibitors; also: nearly all actives have a fitted effect of over 50% in size; as to growth rescue (activation): % of control where 0% means no effect
Conditions: TDP-43 expressing yeast growth rescue, BacTiter-Glo, 24 h; growth rescue (activation): at 46.1 µM (top of the series) unless noted
Procedure, shortened: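 Galactose-induced TDP-43 yeast, OD600=0.02, compound pinned; 24 hr, 30 deg C; BacTiter-Glo luminescence for growth. Inhibitors of TDP-43 toxicity read as activators.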
Potency is read from the fitted curve at half-maximal effect; tags tell the direction and shape of the fitted curve.

SMILES	Potency	growth rescue (activation)
S=C(Nc1ccccc1Oc1ccccc1)Nc1cccc(Cl)c1Cl	active: 22.4 µM	–
Cc1cc(/C=C2\SC(=S)NC2=O)c(C)n1C	inconclusive [activator, partial curve]	–
Cc1ccc(-c2cnc(C3CC3)o2)cc1S(=O)(=O)Nc1ccccc1	active: 31.6 µM	–
C#CCn1c(C2CC(=O)N(c3ccc(OC)cc3)C2)nc2ccccc21 (stereo not drawn)	–	inactive: 14.3%
COc1ccc2ncn(-c3ccccc3)c2c1	inconclusive [activator, full curve, poor fit]	–
Cc1cc2nnc(SCc3ccc(F)cc3)n2c2ccccc12	active: 35.5 µM	–
Cc1ccc(NC(=S)NNC(=O)c2ccc(N3CCOCC3)c([N+](=O)[O-])c2)cc1C	inconclusive [activator, partial curve]	–
COc1cccc(-c2cc(C(=O)Nc3c(C)nn(Cc4ccccc4Cl)c3C)no2)c1	inconclusive [activator, partial curve]	–
O=C(COC(=O)C1CC2CCCC(C1)C2=O)Nc1cccc(F)c1 (stereo not drawn)	–	inactive: 6.05%
Cc1ccc(O)c(NC(=O)Cc2ccc3ccccc3c2)c1	inconclusive [activator, single point]	–
O=C(C(=O)N1CCC(c2ccccc2)CC1)c1ccc(F)c(F)c1	active: 22.4 µM	–
Clc1ccc(-c2nc3cnccn3c2Nc2ccc3c(c2)OCO3)cc1	inconclusive [activator, single point]	–
COc1ccc(-n2c(=O)c(CCC(=O)N(C)Cc3ccccc3C)nc3ccccc32)cc1	–	inactive: 0%
Cn1cc(SCC(=O)N2CCCc3ccccc32)c2ccccc21	inconclusive [activator, single point]	–
CC1(C)CC(=O)C(CSC(=O)c2ccccc2)C(=O)C1	–	inconclusive: -91.2% [activator]
CC(Oc1ccc2cc(-c3ccccc3)c(=O)oc2c1)C(=O)NCC1CCC(C(=O)O)CC1 (stereo not drawn)	inconclusive [activator, single point]	–
Cc1cccnc1C1=NOC(Cc2ccccc2)C(=O)N1CCOc1ccc(F)cc1 (stereo not drawn)	inconclusive [activator, single point]	–
C#Cc1cccc(NC(=O)Cc2cccs2)c1	inconclusive [activator, single point]	–
COc1cccc(-c2cnc3c(NC=O)cc(-c4ccc(OC)cc4OC)cn23)c1	active: 22.4 µM	–
Cc1ccc(NC(=O)c2cc(S(=O)(=O)N(C)C3CCCCC3)ccc2F)cc1C	–	inactive: 9.56%
CCN(c1cccc(C)c1)S(=O)(=O)c1ccc(N2CCCCS2(=O)=O)cc1	–	inactive: 1.4%
COc1ccc(NC(=O)c2ccc(-c3nc(CSc4ccc(C)cc4)c(C)o3)cc2)cc1Cl	–	inactive: -0.104%
Nc1nonc1-c1noc(-c2ccccc2Br)n1	active: 12.6 µM	–
O=C(Nc1ccc(C(=O)N2CCN(c3cccc(Cl)c3)CC2)cc1)c1nsc2ccccc12	inconclusive [activator, partial curve]	–
Cc1nc2cc(-c3ccc(Cl)cc3)nn2c(C)c1CCC(=O)NC(C)c1ccc2c(c1)OCCO2 (stereo not drawn)	active: 28.2 µM	–

SMILES	Potency	growth rescue (activation)
Cc1ccc(C(=O)NC(C#N)=C(Cl)Cl)cc1	active: 11.2 µM	–
FCCCOc1ccc(-c2ccnc(-c3ccccc3)n2)cc1	inconclusive [activator, partial curve, poor fit]	–
CCN1C(=O)C(O)(CC(=O)c2ccc3c(c2)OCCO3)c2ccccc21 (stereo not drawn)	inconclusive [activator, full curve, poor fit]	–
COc1ccc(C(=O)NC(=S)NNC(=O)COc2ccccc2)cc1	–	inactive: 7.89%
Cc1cc(NC(=O)CSc2cc(Cl)ccc2Cl)n(-c2ccccc2)n1	active: 12.6 µM	–
O=C(NCC1CCCO1)C(=O)N/N=C/c1ccc(OCc2ccccc2Cl)cc1 (stereo not drawn)	inconclusive [activator, single point]	–
O=C(/C=C/c1ccccc1)N1CCC(c2ccccc2)C1 (stereo not drawn)	active: 11.2 µM	–
COc1ccc(-n2c3c(c(=O)[nH]c2=O)C(NC(=O)c2ccccc2Cl)(C(F)(F)F)C(=O)N3)cc1 (stereo not drawn)	–	inactive: 3.72%
COc1cccc(C(=O)NCc2ccc3c(c2)CCN3C(=O)c2ccncc2)c1	–	inactive: 28.9%
COC(=O)c1ccc(Cn2cnc3c(cnn3-c3ccc(Cl)cc3)c2=O)o1	inconclusive [activator, partial curve]	–
COc1cc(SC)ccc1C(=O)NC1CCCCC1	inconclusive [activator, single point]	–
CCc1c(C)nc(SCC(=O)CC(=O)OC(C)C)c(C#N)c1C	inconclusive [activator, single point]	–
NC(=O)C1(Nc2ccc(-c3ccccc3)cc2)CCCC1	inconclusive [activator, single point]	–
CCOc1ccccc1N1CCN(c2ncnc3scc(-c4ccc(OC)cc4)c23)CC1	inconclusive [activator, single point]	–
Cc1ccc(C(=O)c2cc([N+](=O)[O-])ccc2N2CC(C)OC(C)C2)cc1 (stereo not drawn)	–	inactive: 9.19%
COc1cc(C2C(C#N)=C(N)N(Nc3ccccc3)C3=C2C(=O)CC(C)(C)C3)ccc1OCc1ccccc1 (stereo not drawn)	–	inactive: -4.21%
CCn1c2ccccc2c2cc(NC(=O)c3cccc([N+](=O)[O-])c3)ccc21	inconclusive [activator, full curve, poor fit]	–
CN(Cc1ccccc1)C(=S)NC(=O)c1ccc(-c2ccccc2)cc1	–	inactive: 1.78%
COc1ccc(NC(=O)c2cccc(NC(=O)c3ccco3)c2)c(OC)c1	inconclusive [activator, single point]	–
CCc1nnc(NC(=O)c2nc(S(=O)(=O)Cc3ccc(C)cc3)ncc2Cl)s1	active: 17.8 µM	–
Cc1ccccc1CSc1ncc(C#N)c(N)n1	inconclusive [activator, single point]	–
COc1ccc([C@H]2CC(=O)C=C(c3cccc(CO)c3)C2)cc1OC	–	inactive: 17.9%
O=C(NCC1CCCO1)c1cc(Br)c(Br)s1 (stereo not drawn)	inconclusive [activator, single point]	–
COc1ccc(CNc2nc3nc(C)cc(C)n3n2)cc1OC	–	inactive: 13.3%
COc1ccc(Cl)c2sc(N3CCN(C(=O)C4=COCCO4)CC3)nc12	inconclusive [activator, partial curve]	–

SMILES	Potency	growth rescue (activation)
COCCN(Cc1cccs1)S(=O)(=O)c1cc(-c2cc(C)no2)ccc1C	active: 35.5 µM	–
CCc1cccc2sc(N3CCN(C(=O)c4ccc([N+](=O)[O-])o4)CC3)nc12	–	inconclusive: -87.4% [activator]
O=C(Oc1ccc(N(C(=O)c2ccncc2)S(=O)(=O)c2ccc(Cl)cc2)cc1)c1ccncc1	inconclusive [activator, single point]	–
Cc1c2cnn(CC(=O)NCc3ccc(F)cc3)c(=O)c2c(C)n1Cc1cccc(Cl)c1	–	inactive: 20.9%
CN(Cc1ccc(Cl)cc1Cl)C(=O)CNC(=O)c1ccc2c(c1)OCO2	inconclusive [activator, single point]	–
Cn1c(=O)c(Sc2ccccc2)c(O)c2ccccc21	active: 12.6 µM	–
COc1ccc(N2CCN(C(=O)c3ccccc3Br)CC2)c([N+](=O)[O-])c1	inconclusive [activator, single point]	–
COc1ccc(NC(c2nnc(-c3ccccc3)o2)c2ccccc2F)cc1Cl (stereo not drawn)	inconclusive [activator, full curve]	–
FC(F)(F)c1cccc(NC(=S)NCc2ccccn2)c1	inconclusive [activator, partial curve]	–
COc1ccc(NC(=O)COC(=O)Cc2ccc(-c3ccccc3)cc2)c(OC)c1	inconclusive [activator, single point]	–
CC(C)c1ccc(CN(C(=O)c2cccs2)C2CCS(=O)(=O)C2)cc1 (stereo not drawn)	inconclusive [activator, single point]	–
COc1cc(/C=C(\C#N)C(N)=O)ccc1OS(=O)(=O)c1ccc(C)cc1	active: 17.8 µM	–
Cc1ccc(SCCNC(=O)c2ccc(C)c(S(=O)(=O)Nc3cccc(C)c3)c2)cc1	–	inactive: -8.51%
COc1cccc(-c2nc(CCl)cs2)c1	active: 11.2 µM	–
CC1CC(C)CN(C(=O)c2cc3ccccc3o2)C1 (stereo not drawn)	inconclusive [activator, partial curve]	–
CN(CC(=O)Nc1ccc(Cl)c(C(F)(F)F)c1)C(=O)CC1Sc2ccccc2NC1=O (stereo not drawn)	inconclusive [activator, partial curve]	–
CCOC(=O)C1=NN(c2ccccc2C)C2=NC(C)=C(C(=O)OC)C(c3cccs3)N12 (stereo not drawn)	inconclusive [activator, partial curve]	–
COc1ccccc1Nc1ncnc2c1cnn2-c1cccc(C)c1	inconclusive [activator, partial curve]	–
O=S(N1CCc2ccccc21)C12CC3CC(CC(C3)C1)C2 (stereo not drawn)	inconclusive [activator, partial curve]	–
COc1cccc(OCc2nc3ccccc3n2CCOc2ccc(C)cc2)c1	inconclusive [activator, partial curve]	–
NC(=O)c1sc2nc3c(c(-c4ccccc4)c2c1N)CCC3	active: 28.2 µM	–
COc1cccc(-n2c(=O)c3c(C)c(C)sc3n(CC(=O)NCCc3ccc(OC)c(OC)c3)c2=O)c1	–	inactive: 5.88%
COc1ccc(/C=C\c2onc(C)c2S(=O)(=O)N2CCC(C(=O)Nc3ccc(F)cc3F)CC2)cc1	–	inactive: 12%
